The whole screen tested about 310,000 compounds, of which about 2,200 (0.71%) showed an effect of 50% or more. The effect is printed as a negative number. The list shows a part of the results.
Each compound was assayed against human ether-à-go-go-related gene (hERG) potassium channel (human, UniProt Q12809) (assay: primary screen, population patch clamp on CHO cells stably expressing hERG).
Chain of human ether-à-go-go-related gene (hERG) potassium channel (Q12809 whole entry, looked up): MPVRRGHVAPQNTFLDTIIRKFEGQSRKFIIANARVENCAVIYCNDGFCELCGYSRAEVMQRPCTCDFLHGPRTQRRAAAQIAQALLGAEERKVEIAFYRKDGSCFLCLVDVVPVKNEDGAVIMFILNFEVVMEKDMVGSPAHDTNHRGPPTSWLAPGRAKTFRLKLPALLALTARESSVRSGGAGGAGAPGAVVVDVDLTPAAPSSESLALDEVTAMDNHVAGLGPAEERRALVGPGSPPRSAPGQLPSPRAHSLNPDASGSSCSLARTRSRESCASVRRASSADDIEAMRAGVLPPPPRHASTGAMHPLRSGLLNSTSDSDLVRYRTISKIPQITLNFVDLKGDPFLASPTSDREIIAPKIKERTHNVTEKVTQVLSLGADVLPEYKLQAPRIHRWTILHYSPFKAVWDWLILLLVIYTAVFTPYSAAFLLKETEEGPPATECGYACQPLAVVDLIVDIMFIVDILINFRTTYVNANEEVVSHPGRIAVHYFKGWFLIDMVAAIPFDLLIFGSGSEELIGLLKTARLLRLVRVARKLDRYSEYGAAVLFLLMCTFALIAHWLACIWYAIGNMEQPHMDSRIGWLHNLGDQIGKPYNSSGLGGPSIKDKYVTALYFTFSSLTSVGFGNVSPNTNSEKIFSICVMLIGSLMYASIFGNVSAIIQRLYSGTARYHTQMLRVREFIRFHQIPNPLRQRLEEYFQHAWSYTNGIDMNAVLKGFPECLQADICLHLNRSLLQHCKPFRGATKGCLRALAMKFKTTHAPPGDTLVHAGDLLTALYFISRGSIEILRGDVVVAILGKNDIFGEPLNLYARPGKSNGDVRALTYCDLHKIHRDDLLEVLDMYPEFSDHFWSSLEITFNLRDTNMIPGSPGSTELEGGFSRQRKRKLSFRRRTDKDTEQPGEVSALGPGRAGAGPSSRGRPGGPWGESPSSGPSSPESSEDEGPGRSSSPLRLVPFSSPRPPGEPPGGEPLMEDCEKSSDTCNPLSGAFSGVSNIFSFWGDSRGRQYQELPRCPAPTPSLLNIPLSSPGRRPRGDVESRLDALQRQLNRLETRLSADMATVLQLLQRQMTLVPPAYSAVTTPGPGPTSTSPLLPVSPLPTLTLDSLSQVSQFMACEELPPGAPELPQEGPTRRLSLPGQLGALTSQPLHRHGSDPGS

First: COc1ccccc1NC(=O)c1sc2ncn(Cc3ccc(C)cc3)c(=O)c2c1C
Second: COc1ccc(CNC(=O)c2c([S-])n(-c3ccc(C)cc3)c3cccc[n+]23)cc1
The “hERG current change (%, negative = inhibition) at 1uM” value of the first is higher: 10.5% for the first, 8.04% for the second.

Going from CCNC(=S)NNC(=O)c1cc(-c2ccc(OC)cc2)nc2ccccc12 to CCOc1ccc(NC(=S)NNC(=O)CC(C)O)cc1 (stereo not shown), the “hERG current change (%, negative = inhibition) at 1uM” value rises from -20.9% to 25.6%.

Compared with Cc1ccc(-n2cc(CNCC3CC(=O)N(C4CC4)C3)c(-c3cccc(C)c3)n2)cc1 (stereo not shown), Cc1ccc(C)c(Cn2cnc3c(nnn3-c3ccc(F)cc3)c2=O)c1 is higher in “hERG current change (%, negative = inhibition) at 1uM” value: -31% for the first, -0.0639% for the second.

First: COc1ccc(C2Nc3ccccc3NC3=C2C(=O)CC(C)(C)C3)cc1 (stereo not shown)
Second: CC(C)(C)NC(=O)C(c1ccccn1)N(C(=O)C1CSC(=O)C1)c1ccc(F)cc1 (stereo not shown)
The “hERG current change (%, negative = inhibition) at 1uM” value of the first is higher: 13.9% for the first, 10.4% for the second.

First: Cc1nnc(NC(=O)CC(C)c2ccccc2)s1 (stereo not shown)
Second: CC(=O)Nc1ccc(NC(=O)C(C)c2cccc(C(=O)c3ccccc3)c2)cc1 (stereo not shown)
The “hERG current change (%, negative = inhibition) at 1uM” value of the first is lower: 15.8% for the first, 17.1% for the second.

First: CCN(CC(=O)Nc1c(F)cccc1F)C(=O)CSc1ccc(F)cc1
Second: COc1ccccc1C(=O)NCCC(=O)N(C)CC(=O)Nc1ccc(N2CCOCC2)cc1
The “hERG current change (%, negative = inhibition) at 1uM” value of the first is higher: -2.96% for the first, -8.37% for the second.

First: CC(C)N1CCN(Cc2cn[nH]c2C2CCCCC2)CC1CCO (stereo not shown)
Second: CC(=O)c1cccc(CN2CCN(C3CCCCC3)C(CCO)C2)c1 (stereo not shown)
The “hERG current change (%, negative = inhibition) at 1uM” value of the first is higher: 8.99% for the first, 1.26% for the second.

First: C=CCn1c(SCC(=O)NCc2ccc3c(c2)OCO3)nnc1-c1cccnc1
Second: O=C(CCCc1c[nH]c2ccccc12)NCCc1c[nH]c2ccccc12
The “hERG current change (%, negative = inhibition) at 1uM” value of the first is lower: 8.01% for the first, 12% for the second.

First: Cc1cc(OCC(=O)NCCCN2CCOCC2)cc(C)c1Cl
Second: CCN(CC(=O)NC1CCS(=O)(=O)C1)S(=O)(=O)c1ccc2ccccc2c1 (stereo not shown)
The “hERG current change (%, negative = inhibition) at 1uM” value of the first is higher: 3.6% for the first, 2% for the second.

Compared with C=CCNc1nc(NCCO)nc(N2CCCC2)n1, CN(C)c1ccc(CN2CCCCCC2)cc1 is higher in “hERG current change (%, negative = inhibition) at 1uM” value: 10.8% for the first, 13.7% for the second.

Going from CN(c1cccc(NC(=O)Nc2cccc(Cl)c2)c1)S(C)(=O)=O to Cc1cccc(C(=O)Nc2c(C#N)c(C)c(C)n2Cc2ccccc2)c1, the “hERG current change (%, negative = inhibition) at 1uM” value rises from 3.08% to 11.6%.

Going from CCCC1=C(C(=O)OCC)C(c2ccc(N(C)C)cc2)n2ncnc2N1 (stereo not shown) to CCOc1ccccc1N(C(=O)c1snc(C(N)=O)c1N)C(C(=O)NCCC(C)C)c1ccco1 (stereo not shown), the “hERG current change (%, negative = inhibition) at 1uM” value falls from 0.474% to -15.6%.

For CNC(=O)Nc1ccc(C(O)(C(=O)OC)C(F)(F)F)cc1 (stereo not shown), the “hERG current change (%, negative = inhibition) at 1uM” value was 19.6%.

Source: PMC4336329 (PLoS ONE, 2015)
